# Laboratory results from the supplement of paper PMC8728848.
# The other results are listed elsewhere or left out.
# B1: HA-11100 (Pseudomonas aeruginosa), Q02G51_PSEAB (protein)
# chain: QFNPNEIKISQQGKTTLIDQSTQRAIINWKGFDVSADEAVRFNQPGVTSSTLNRVTAGQESVIAGRISAPGQVIIYNSNGVVFSGSAKVDVGSLITTTANISDEHFRQGKLIFDQPGNPDARIVNDGSISVAEKGLAAFVAPSVANNGVINARLGTVAMAAGNAATIDLYG
# Tests used:
# Experiment in all cases: glycan array binding signal (z-score within array); higher = stronger binding
# Settings in all cases: glycan notation: IUPAC condensed, linker removed
# Glc(b1-4)Glc = biological target: Glc(b1-4)Glc
# In short: (§1)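 Glycan array binding is given as a within-array Z-score, which can be read as non-binding when negative. The arrays, 3228 of them, came from the Consortium for Functional Glycomics database and were retained only where the protein sequence was available. Z-scores were averaged across arrays of the same protein sequence at different concentrations or buffers and across linkers.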
# Glc(b1-6)Glc = biological target: Glc(b1-6)Glc
# In short: as §1
# GlcA(b1-3)Gal = biological target: GlcA(b1-3)Gal
# In short: as §1
# GlcA(b1-3)GlcNAc = biological target: GlcA(b1-3)GlcNAc
# In short: as §1
# GlcA(b1-6)Gal = biological target: GlcA(b1-6)Gal
# In short: as §1
# [1] = biological target: GlcA3S(b1-3)Gal(b1-4)GlcNAc(b1-2)Man
# In short: as §1
# [2] = biological target: GlcA3S(b1-3)Gal(b1-4)GlcNAc(b1-3)Gal(b1-4)Glc
# In short: as §1
# [3] = biological target: GlcNAc(a1-3)Gal(b1-4)GlcNAc
# In short: as §1
# [4] = biological target: GlcNAc(a1-4)Gal(b1-3)GlcNAc
# In short: as §1
# [5] = biological target: GlcNAc(a1-4)Gal(b1-4)GalNAc
# In short: as §1
# [6] = biological target: GlcNAc(a1-4)Gal(b1-4)GlcNAc
# In short: as §1
# [7] = biological target: GlcNAc(a1-4)Gal(b1-4)GlcNAc(b1-3)Gal(b1-4)Glc
# In short: as §1
# [8] = biological target: GlcNAc(a1-4)Gal(b1-4)GlcNAc(b1-3)Gal(b1-4)GlcNAc
# In short: as §1
# [9] = biological target: GlcNAc(a1-4)Gal(b1-4)GlcNAc(b1-3)Gal(b1-4)GlcNAc(b1-3)Gal(b1-4)GlcNAc
# In short: as §1
# [10] = biological target: GlcNAc(a1-4)Gal(b1-4)GlcNAc(b1-3)Gal(b1-4)[Fuc(a1-3)]GlcNAc(b1-3)Gal(b1-4)[Fuc(a1-3)]GlcNAc
# In short: as §1
# [11] = biological target: GlcNAc(a1-6)Gal(b1-4)GlcNAc
# In short: as §1
# [12] = biological target: GlcNAc(b1-2)Gal(b1-3)GalNAc
# In short: as §1
# [13] = biological target: GlcNAc(b1-2)Man(a1-3)[GlcNAc(b1-2)Man(a1-6)]Man(b1-4)GlcNAc(b1-4)GlcNAc
# In short: as §1
# [14] = biological target: GlcNAc(b1-2)Man(a1-3)[GlcNAc(b1-2)Man(a1-6)]Man(b1-4)GlcNAc(b1-4)[Fuc(a1-6)]GlcNAc
# In short: as §1
# [15] = biological target: GlcNAc(b1-2)Man(a1-3)[GlcNAc(b1-4)][GlcNAc(b1-2)Man(a1-6)]Man(b1-4)GlcNAc(b1-4)GlcNAc
# In short: as §1
# [16] = biological target: GlcNAc(b1-2)Man(a1-3)[GlcNAc(b1-4)][GlcNAc(b1-2)Man(a1-6)]Man(b1-4)GlcNAc(b1-4)[Fuc(a1-6)]GlcNAc
# In short: as §1
# [17] = biological target: GlcNAc(b1-2)[GlcNAc(b1-4)]Man(a1-3)[GlcNAc(b1-2)Man(a1-6)]Man(b1-4)GlcNAc(b1-4)GlcNAc
# In short: as §1
# [18] = biological target: GlcNAc(b1-2)[GlcNAc(b1-4)]Man(a1-3)[GlcNAc(b1-4)][GlcNAc(b1-2)Man(a1-6)]Man(b1-4)GlcNAc(b1-4)GlcNAc
# In short: as §1
# [19] = biological target: GlcNAc(b1-2)[GlcNAc(b1-4)]Man(a1-3)[GlcNAc(b1-4)][GlcNAc(b1-2)[GlcNAc(b1-6)]Man(a1-6)]Man(b1-4)GlcNAc(b1-4)GlcNAc
# In short: as §1
# [20] = biological target: GlcNAc(b1-2)[GlcNAc(b1-4)]Man(a1-3)[GlcNAc(b1-4)][GlcNAc(b1-2)[GlcNAc(b1-6)]Man(a1-6)]Man(b1-4)GlcNAc(b1-4)[Fuc(a1-6)]GlcNAc
# In short: as §1
# [21] = biological target: GlcNAc(b1-2)[GlcNAc(b1-6)]Man(a1-6)[GlcNAc(b1-2)Man(a1-3)]Man(b1-4)GlcNAc(b1-4)GlcNAc
# In short: as §1
# [22] = biological target: GlcNAc(b1-2)[GlcNAc(b1-6)]Man(a1-6)[GlcNAc(b1-2)Man(a1-3)]Man(b1-4)GlcNAc(b1-4)[Fuc(a1-6)]GlcNAc
# In short: as §1
# [23] = biological target: GlcNAc(b1-2)[GlcNAc(b1-6)]Man(a1-6)[GlcNAc(b1-4)][GlcNAc(b1-2)Man(a1-3)]Man(b1-4)GlcNAc(b1-4)GlcNAc
# In short: as §1
# GlcNAc(b1-3)Fuc = biological target: GlcNAc(b1-3)Fuc
# In short: as §1
# GlcNAc(b1-3)Gal = biological target: GlcNAc(b1-3)Gal
# In short: as §1
# [24] = biological target: GlcNAc(b1-3)Gal(b1-3)GalNAc
# In short: as §1
# GlcNAc(b1-3)Gal(b1-4)Glc = biological target: GlcNAc(b1-3)Gal(b1-4)Glc
# In short: as §1
# [25] = biological target: GlcNAc(b1-3)Gal(b1-4)GlcNAc
# In short: as §1
# [26] = biological target: GlcNAc(b1-3)Gal(b1-4)GlcNAc(b1-2)Man(a1-3)[GlcNAc(b1-3)Gal(b1-4)GlcNAc(b1-2)Man(a1-6)]Man(b1-4)GlcNAc(b1-4)GlcNAc
# In short: as §1
# [27] = biological target: GlcNAc(b1-3)Gal(b1-4)GlcNAc(b1-2)Man(a1-3)[GlcNAc(b1-3)Gal(b1-4)GlcNAc(b1-2)Man(a1-6)]Man(b1-4)GlcNAc(b1-4)[Fuc(a1-6)]GlcNAc
# In short: as §1
# [28] = biological target: GlcNAc(b1-3)Gal(b1-4)GlcNAc(b1-2)[GlcNAc(b1-3)Gal(b1-4)GlcNAc(b1-6)]Man(a1-6)[GlcNAc(b1-3)Gal(b1-4)GlcNAc(b1-2)Man(a1-3)]Man(b1-4)GlcNAc(b1-4)GlcNAc
# In short: as §1
# [29] = biological target: GlcNAc(b1-3)Gal(b1-4)GlcNAc(b1-3)Gal(b1-4)GlcNAc
# In short: as §1
# [30] = biological target: GlcNAc(b1-3)Gal(b1-4)GlcNAc(b1-3)Gal(b1-4)GlcNAc(b1-2)Man(a1-3)[GlcNAc(b1-3)Gal(b1-4)GlcNAc(b1-3)Gal(b1-4)GlcNAc(b1-2)Man(a1-6)]Man(b1-4)GlcNAc(b1-4)GlcNAc
# In short: as §1
# [31] = biological target: GlcNAc(b1-3)Gal(b1-4)GlcNAc(b1-3)Gal(b1-4)GlcNAc(b1-2)Man(a1-3)[GlcNAc(b1-3)Gal(b1-4)GlcNAc(b1-3)Gal(b1-4)GlcNAc(b1-2)Man(a1-6)]Man(b1-4)GlcNAc(b1-4)[Fuc(a1-6)]GlcNAc
# In short: as §1
# [32] = biological target: GlcNAc(b1-3)Gal(b1-4)GlcNAc(b1-3)Gal(b1-4)GlcNAc(b1-2)[GlcNAc(b1-3)Gal(b1-4)GlcNAc(b1-3)Gal(b1-4)GlcNAc(b1-6)]Man(a1-6)[GlcNAc(b1-3)Gal(b1-4)GlcNAc(b1-3)Gal(b1-4)GlcNAc(b1-2)Man(a1-3)]Man(b1-4)GlcNAc(b1-4)[Fuc(a1-6)]GlcNAc
# In short: as §1
# [33] = biological target: GlcNAc(b1-3)Gal(b1-4)GlcNAc(b1-3)Gal(b1-4)GlcNAc(b1-3)Gal(b1-4)GlcNAc(b1-2)Man(a1-3)[GlcNAc(b1-3)Gal(b1-4)GlcNAc(b1-3)Gal(b1-4)GlcNAc(b1-3)Gal(b1-4)GlcNAc(b1-2)Man(a1-6)]Man(b1-4)GlcNAc(b1-4)GlcNAc
# In short: as §1
# [34] = biological target: GlcNAc(b1-3)Gal(b1-4)GlcNAc(b1-3)Gal(b1-4)GlcNAc(b1-3)Gal(b1-4)GlcNAc(b1-2)Man(a1-3)[GlcNAc(b1-3)Gal(b1-4)GlcNAc(b1-3)Gal(b1-4)GlcNAc(b1-3)Gal(b1-4)GlcNAc(b1-2)Man(a1-6)]Man(b1-4)GlcNAc(b1-4)[Fuc(a1-6)]GlcNAc
# In short: as §1
# [35] = biological target: GlcNAc(b1-3)Gal(b1-4)GlcNAc(b1-3)Gal(b1-4)GlcNAc(b1-3)Gal(b1-4)GlcNAc(b1-2)[GlcNAc(b1-3)Gal(b1-4)GlcNAc(b1-3)Gal(b1-4)GlcNAc(b1-3)Gal(b1-4)GlcNAc(b1-6)]Man(a1-6)[GlcNAc(b1-3)Gal(b1-4)GlcNAc(b1-3)Gal(b1-4)GlcNAc(b1-3)Gal(b1-4)GlcNAc(b1-2)Man(a1-3)]Man(b1-4)GlcNAc(b1-4)[Fuc(a1-6)]GlcNAc
# In short: as §1
# [36] = biological target: GlcNAc(b1-3)Gal(b1-4)GlcNAc(b1-3)Gal(b1-4)GlcNAc(b1-3)Gal(b1-4)GlcNAc(b1-3)Gal(b1-4)GlcNAc(b1-2)Man(a1-3)[GlcNAc(b1-3)Gal(b1-4)GlcNAc(b1-3)Gal(b1-4)GlcNAc(b1-3)Gal(b1-4)GlcNAc(b1-3)Gal(b1-4)GlcNAc(b1-2)Man(a1-6)]Man(b1-4)GlcNAc(b1-4)GlcNAc
# In short: as §1
# [37] = biological target: GlcNAc(b1-3)Gal(b1-4)GlcNAc(b1-3)Gal(b1-4)GlcNAc(b1-3)Gal(b1-4)GlcNAc(b1-3)Gal(b1-4)GlcNAc(b1-2)Man(a1-3)[GlcNAc(b1-3)Gal(b1-4)GlcNAc(b1-3)Gal(b1-4)GlcNAc(b1-3)Gal(b1-4)GlcNAc(b1-3)Gal(b1-4)GlcNAc(b1-2)Man(a1-6)]Man(b1-4)GlcNAc(b1-4)[Fuc(a1-6)]GlcNAc
# In short: as §1
binder,measurement,setting,value
B1,glycan array binding signal (z-score),Glc(b1-4)Glc,-0.166
same,glycan array binding signal (z-score),Glc(b1-6)Glc,0.199
same,glycan array binding signal (z-score),GlcA(b1-3)Gal,-0.243
same,glycan array binding signal (z-score),GlcA(b1-3)GlcNAc,-0.046
same,glycan array binding signal (z-score),GlcA(b1-6)Gal,-0.399
same,glycan array binding signal (z-score),[1],-0.243
same,glycan array binding signal (z-score),[2],-0.525
same,glycan array binding signal (z-score),[3],-0.571
same,glycan array binding signal (z-score),[4],-0.269
same,glycan array binding signal (z-score),[5],-0.191
same,glycan array binding signal (z-score),[6],-0.04
same,glycan array binding signal (z-score),[7],-0.442
same,glycan array binding signal (z-score),[8],-0.145
same,glycan array binding signal (z-score),[9],-0.121
same,glycan array binding signal (z-score),[10],0.246
same,glycan array binding signal (z-score),[11],-0.238
same,glycan array binding signal (z-score),[12],-0.142
same,glycan array binding signal (z-score),[13],-0.208
same,glycan array binding signal (z-score),[14],-0.209
same,glycan array binding signal (z-score),[15],-0.734
same,glycan array binding signal (z-score),[16],-0.527
same,glycan array binding signal (z-score),[17],-0.37
same,glycan array binding signal (z-score),[18],-0.197
same,glycan array binding signal (z-score),[19],-0.518
same,glycan array binding signal (z-score),[20],0.051
same,glycan array binding signal (z-score),[21],-0.238
same,glycan array binding signal (z-score),[22],0.486
same,glycan array binding signal (z-score),[23],-0.502
same,glycan array binding signal (z-score),GlcNAc(b1-3)Fuc,-0.317
same,glycan array binding signal (z-score),GlcNAc(b1-3)Gal,-0.414
same,glycan array binding signal (z-score),[24],-0.226
same,glycan array binding signal (z-score),GlcNAc(b1-3)Gal(b1-4)Glc,-0.359
same,glycan array binding signal (z-score),[25],-0.399
same,glycan array binding signal (z-score),[26],0.12
same,glycan array binding signal (z-score),[27],0.106
same,glycan array binding signal (z-score),[28],-0.161
same,glycan array binding signal (z-score),[29],-0.67
same,glycan array binding signal (z-score),[30],3.34
same,glycan array binding signal (z-score),[31],0.011
same,glycan array binding signal (z-score),[32],0.026
same,glycan array binding signal (z-score),[33],-0.332
same,glycan array binding signal (z-score),[34],-0.108
same,glycan array binding signal (z-score),[35],-0.285
same,glycan array binding signal (z-score),[36],-0.475
same,glycan array binding signal (z-score),[37],-0.474
